These results are taken from article PMC6451091.

Some of the results follow. Measured with an extract: partners may take part in the binding.

For this experiment, the system named is PU.1 (endogenous, THP-1 nuclear extract) + IRF8 (endogenous, THP-1 nuclear extract). The experiment can be described thus: nuclear extract protein-binding microarray (nextPBM). As to conditions: 20 mM HEPES pH 7.9, 100 mM NaCl, 1 mM DTT, 0.2 mg/mL BSA, 0.02% Triton X-100, 2% milk, 0.4 mg/mL salmon testes DNA; 1 h; temperature not stated; high values mean tight binding; double strand, one strand shown; sequences stand for … in GCCTAGCAC…GTGCTAGGTCTTGATTCGCTTGACGCTGCTG
In the case of GCCTAGGGGAACTGAAACTG, the binding signal turned out to be 21.2 z-score.

With AGGAAGAGGAAGAGAAACTA, the binding signal was found to be 7.37 z-score.

On to AAAAAAAGGCAATGAAAGTA, for which the binding signal was 2.31 z-score.

Regarding TGAAATAGGAAGTGAAACCA, the binding signal was 63.6 z-score.

In the case of AAAAAAAGGAAATGAAACTG, the binding signal amounted to 36.1 z-score.

On to CTGGCAGGGAGCTGAAACTC, for which the binding signal is 2.5 z-score.

On to TGAGAGTAGAAGTGAAACCT, for which the binding signal came out at 17.7 z-score.

On to TAAAGGAGGAACTGAAAACA, for which the binding signal came to 1.74 z-score.

For the sequence TGAAACAGGAAGTGAACCCA, the binding signal turned out to be 3.44 z-score.

Take TAGCAGAGGAAGTGAAACTA: the binding signal was 60.4 z-score.

Turning to TGAGAGGAGATGTGAAACCT, the binding signal was 10.8 z-score.

As to TAAAGGAGGAACAGAAACCA, the binding signal worked out at 10.8 z-score.

In the case of TGAAACAGGAAGTGAAACCT, the binding signal was 65.8 z-score.

As to TGGCAGAGAAAGTGAAACTA, the binding signal came out at 65.6 z-score.

As to GATAGGAGGAACTGAAAGCT, the binding signal was found to be 3.41 z-score.

As to AGGGGAGAGAAGTGAAAGTG, the binding signal was 17.1 z-score.

For TAGAGGAGGAACTGAAACCA, the binding signal worked out at 26.5 z-score.

On to GAAAGGAGGATGTGAAACTA, for which the binding signal amounted to 36.7 z-score.

Regarding AAAAAAAGGAAATGAAGGTA, the binding signal was determined as 0.886 z-score.

Regarding GAAGAGAGGAAGTGAAACTA, the binding signal is 65.3 z-score.

With GAAATGAGGAAATGAAACCA, the binding signal turned out to be 56.8 z-score.

Regarding CCACAGAGGAAATGAAACTT, the binding signal came out at 17.9 z-score.

For TAAAGGGGGAACTGAAACCA, the binding signal was determined as 31.4 z-score.

GAAAAGAGGAAGCGAAACTG: the binding signal is 77.1 z-score.

Turning to CTGCCAGGGAAGTGCAAGCA, the binding signal is 0.447 z-score.

In the case of GATAAGAGGAACTGAGAGCT, the binding signal came out at 0.808 z-score.

For the sequence TAAAGGAGGAACTGAAACTA, the binding signal worked out at 52.7 z-score.

Take TGACAGGAGAAGTGAAACCT: the binding signal was 23.5 z-score.

On to GTGGTGAGGAACTGAAACTG, for which the binding signal was 20.1 z-score.

Take TTGGAAAGGAAGTGAAACTG: the binding signal came out at 40.9 z-score.

As for AAGAAAGGGAAGTGAAACTA, the binding signal came out at 79.1 z-score.

Turning to TAAAGGAGGACCTGAAACCA, the binding signal was determined as 7.23 z-score.

For CTGTCAGGGAAGTGAAAGCA, the binding signal was determined as 6.1 z-score.

Take TGCAGGTGGAAGTGAAACTG: the binding signal was determined as 40.8 z-score.

Consider CTGCCAGGGAACTGAAAGCA, for which the binding signal turned out to be 0.718 z-score.

Turning to TGAAACAGGAAGAGAAACCA, the binding signal stood at 5.57 z-score.

CTGGCCGGGAACTGAAACTC: the binding signal was 9.76 z-score.

Turning to CTGCCATGGAAGTGAAAGCA, the binding signal came out at 1.6 z-score.

Consider CTGCCAGGGAAGTGAAAGGA, for which the binding signal is 1.31 z-score.

Regarding CTGGCAAGGAACTGAAACTC, the binding signal was found to be 11.2 z-score.
